# Assay results: PubChem BioAssay AID360 (National Center for Advancing Translational Sciences (NCATS), 2006)
# Screen size: about 48,000 compounds; about 550 (1.1%) were called active. Inconclusive results (about 4%) are left out. Cut-off read from the data, not from the text of the source: active = potency below about 15 µM; inconclusive = mostly about 16 µM to 33 µM; inactive = weaker than that. The list shows a part of the results.
# Target: Lysosomal acid glucosylceramidase (Homo sapiens) (UniProt P04062)
# Chain of UniProt P04062 (P04062 whole entry, looked up): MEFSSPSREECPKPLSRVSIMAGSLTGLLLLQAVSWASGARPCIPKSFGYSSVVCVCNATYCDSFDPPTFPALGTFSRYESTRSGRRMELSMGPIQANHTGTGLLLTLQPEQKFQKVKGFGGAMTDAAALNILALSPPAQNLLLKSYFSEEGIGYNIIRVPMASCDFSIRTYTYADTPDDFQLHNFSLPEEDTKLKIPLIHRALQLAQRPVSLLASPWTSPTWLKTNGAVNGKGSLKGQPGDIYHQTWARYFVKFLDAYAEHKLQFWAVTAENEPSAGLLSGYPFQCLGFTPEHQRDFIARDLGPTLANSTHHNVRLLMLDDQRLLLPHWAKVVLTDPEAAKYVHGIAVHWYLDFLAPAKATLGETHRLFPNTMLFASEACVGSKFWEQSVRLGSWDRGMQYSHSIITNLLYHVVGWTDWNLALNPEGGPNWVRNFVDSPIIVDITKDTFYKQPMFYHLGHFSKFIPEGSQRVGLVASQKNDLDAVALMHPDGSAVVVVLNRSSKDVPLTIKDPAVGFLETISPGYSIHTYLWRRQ
# Test: Glucocerebrosidase;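 note: the screen sought inhibitors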
# Conditions: purified enzyme, resorufin glucoside fluorescence (screen aimed at inhibitors), 20 min
# Procedure, shortened: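 Wild-type enzyme at 0.2 nM final in 50mM citric acid/KH2PO4, 10mM sodium taurocholate, 0.01% tween-20, pH 5.9, with resorufin beta-D-glucopyranoside at 30 uM final. Compounds titrated, 20 min at RT, red fluorescence read; AC50 from titration.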
# Potency is the fitted concentration of half-maximal effect.
row,Compound,Potency
1,CCc1nnc(NC(=O)CN2CCN(c3ccccc3OC)CC2)s1,inactive: > 76.9 µM
2,O=C(CCN1c2ccccc2Sc2ccccc21)OCC(=O)N1CCN(C(=O)c2ccco2)CC1,inactive: > 76.9 µM
3,O=C(CSc1nccn1-c1ccccc1)NCc1ccc2c(c1)OCO2,inactive: > 76.9 µM
4,CCNc1nc(NCC)n2c(SCc3nc4ccccc4c(=O)[nH]3)nnc2n1,inactive: > 76.9 µM
5,O=C1CCCC2=C1C(c1cn(-c3ccccc3)nc1-c1cccs1)c1c([nH]c(=O)[nH]c1=O)N2 (stereo not drawn),inactive
6,CCOc1ccc(C(=O)C2CCN(CC(=O)Nc3ccccc3N3CCOCC3)CC2)cc1,inactive: > 76.9 µM
7,Cc1cc(NC(=O)CSc2nnc3c4c(C)c(C)sc4ncn23)no1,inactive: > 76.9 µM
8,COc1ccc(NC(=O)CN2CCN(c3ccccc3F)CC2)cc1,inactive: > 76.9 µM
9,CCOc1cc(C(=O)N(C)Cc2cc3ccccc3[nH]c2=O)cc(OCC)c1OCC,inactive: > 76.9 µM
10,CCC1(C(=O)OC)NC(c2ccco2)C2C(=O)N(c3ccc(C)cc3)C(=O)C21 (stereo not drawn),inactive: > 76.9 µM
11,CC1CCc2ccc(F)cc2N1S(=O)(=O)c1cccs1 (stereo not drawn),inactive: > 76.9 µM
12,O=S(=O)(c1cccc2nsnc12)N1CCc2ccccc21,inactive: > 76.9 µM
13,Cc1c(C(=O)N2CCCCC2)sc(NC(=O)C2CC2)c1C#N,inactive: > 76.9 µM
14,CCOc1ccc(NC(=O)Cn2nnc(-c3ccccc3NC(=O)C3CC3)n2)cc1,inactive: > 76.9 µM
15,Cc1cc(C(=O)CSc2nc3ccccc3o2)c(C)n1C1CC1,active: 13.5 µM
16,c1csc(-c2csc(-c3cccs3)n2)c1,inactive: > 76.9 µM
17,O=C(NCc1cccnc1)c1ccc(CS(=O)(=O)Cc2ccc(Cl)cc2)o1,inactive: > 76.9 µM
18,CC(C)COc1cccc(C(=O)Nc2ccc(S(=O)(=O)N3CCOCC3)cc2)c1,inactive
19,CCOc1ccccc1NC(=O)CSc1nnnn1Cc1ccccc1,inactive: > 76.9 µM
20,CC1CCN(S(=O)(=O)c2ccc3[nH]cc(C(=O)NCCN4CCOCC4)c(=O)c3c2)CC1,inactive: > 76.9 µM

row,Compound,Potency
1,Cc1occc1C(=O)NCc1cccc(CNC(=O)c2ccoc2C)c1,inactive: > 76.9 µM
2,COc1cc2c(cc1OC)-c1nncn1C(C)(C)C2,inactive: > 76.9 µM
3,c1cc(-c2noc(CCC3CCCC3)n2)ccn1,inactive: > 76.9 µM
4,O=C(CSc1nc(O)cc(=O)[nH]1)N1CCCc2ccccc21,inactive: > 76.9 µM
5,CCOC(=O)CCCNC(=O)CN1C(=O)NC2(CCCCCC2)C1=O,inactive: > 76.9 µM
6,CSc1nnc(-c2ccco2)c(-c2ccco2)n1,inactive: > 76.9 µM
7,CCc1cc(C(=O)OC)c(NC(=O)CCCC(=O)O)s1,inactive: > 76.9 µM
8,COc1ccc(NC(=O)CCc2nc(-c3ccc(C)cc3)no2)cc1Cl,inactive: > 76.9 µM
9,COC(=O)CN1C(=O)C2(C(C#N)=C(N)Oc3cc(C)oc(=O)c32)c2ccccc21 (stereo not drawn),inactive: > 76.9 µM
10,O=C(O)CCn1[nH]c(=O)ccc1=O,inactive: > 76.9 µM
11,O=C(CCCn1c(=O)[nH]c2ccsc2c1=O)N1CCN(Cc2ccc3c(c2)OCO3)CC1,inactive: > 76.9 µM
12,OC(COCc1ccccc1)CN1CCN(c2ccccc2F)CC1 (stereo not drawn),inactive: > 76.9 µM
13,CCOC(=O)CN(C(=O)Cn1nnc(-c2ccc(C)cc2)n1)C(CC)C(=O)NC1CCCC1 (stereo not drawn),inactive: > 76.9 µM
14,CC(C)(NCc1ccccc1Cl)C(=O)O,inactive: > 76.9 µM
15,CC(=O)N1C(=O)C2(C(C#N)=C(N)Oc3cc(C)oc(=O)c32)c2ccccc21 (stereo not drawn),inactive: > 76.9 µM
16,CC(=O)c1cc2c(cc1NC(=O)c1ccc(-n3nc(C)cc3C)cc1)OCO2,inactive
17,CC1CCCN(C(=O)CN2CCN(C(=O)c3ccco3)CC2)C1 (stereo not drawn),inactive: > 76.9 µM
18,O=C(CSc1nnc(-c2ccco2)o1)N1c2ccccc2CCc2ccccc21,inactive: > 76.9 µM
19,CCOC(=O)Cc1csc(NC(=O)CSc2nnc(C(C)C)n2C)n1,inactive: > 76.9 µM
20,c1ccc2c(c1)ncn2CCn1cnc2ccccc21,inactive: > 76.9 µM

row,Compound,Potency
1,CCOC(=O)N1CCC(NC(=O)C2CCN(S(=O)(=O)c3c(C)noc3C)CC2)CC1,inactive: > 76.9 µM
2,CC1CCN(C(=O)CN(CCc2ccccc2)S(C)(=O)=O)CC1,inactive: > 76.9 µM
3,COc1ccc(OC)c(C2C(C(=O)c3ccc(C)o3)=C(O)C(=O)N2CCCN2CCOCC2)c1 (stereo not drawn),inactive: > 76.9 µM
4,CCOc1ccccc1N(CC(=O)NC1CCCC1)C(=O)CCCC(=O)Nc1ccccn1,inactive: > 76.9 µM
5,CCc1ccccc1NC(=O)CC1S/C(=N\c2nccs2)N(CC)C1=O (stereo not drawn),inactive: > 76.9 µM
6,COCc1[nH]nc2c1C(c1ccccc1OC)C(C#N)=C(N)O2 (stereo not drawn),inactive: > 76.9 µM
7,Cc1c(C(=O)Nn2cnnc2)oc2ccccc12,inactive: > 76.9 µM
8,O=C(CCN1C(=O)c2ccccc2S1(=O)=O)Nc1nc2c(s1)CCCC2,inactive: > 76.9 µM
9,O=C(Nc1ccccc1)OCCNC(=O)c1ccccc1,inactive: > 76.9 µM
10,Cc1ccc(C(=O)Nc2nnn(C)n2)cc1,inactive: > 15.4 µM
11,COc1ccc(CNn2c(C)nc3ccccc3c2=O)cc1,inactive: > 76.9 µM
12,O=S(=O)(Cc1ccccc1)NCc1cccnc1,inactive: > 76.9 µM
13,O=c1sc(Nc2ccccc2)nc2ccsc12,inactive: > 76.9 µM
14,Cc1ccc2c(c1)N(C(=O)CSc1nncn1C)C(C)(C)c1ssc(=S)c1-2,inactive: > 76.9 µM
15,OC(CCCCN1CCCCC1)c1ccccc1 (stereo not drawn),inactive: > 76.9 µM
16,O=C1CC(NC23CC4CC(CC(C4)C2)C3)C(=O)N1c1ccc2c(c1)OCO2 (stereo not drawn),inactive: > 76.9 µM
17,COc1ccc(-c2nnn(CC(=O)N(C3CCCC3)C(C)C(=O)NC3CCCC3)n2)cc1OC (stereo not drawn),inactive: > 76.9 µM
18,NC(=O)C1(N2CCCCC2)CCN(C(=O)c2ccc(C#Cc3ccccc3)o2)CC1,inactive: > 76.9 µM
